Experimental data: PubChem BioAssay (Tox21)
The inconclusive results got no clear call from the source; some entries with a clear call stand among them for comparison. Potencies of inconclusive entries are left out as doubtful fits. Calls of active or inactive are those of the source. Calls come from the whole dose curve; as a rule, active = well fitted curve in the direction sought with a large enough effect in the repeat runs; inconclusive = weak or mixed curves; inactive = no such curve, though single readings can be large; an effect the other way counts as inactive or inconclusive.

test: qHTS RealTime-Glo MT Cell Viability Assay in HepG2 cells - 8 hour (AID 1224873); settings: RealTime-Glo luminescence; series mostly up to 76.8 µM; note: nearly all actives have a fitted effect of over 55% in size
Summary of the method: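 Real-time viability: cells seeded at 600 per well together with NanoLuc and cell-permeant prosubstrate, compounds added after 5 h incubation. Luminescence tracked at 0, 8, 16, 24, 32 and 40 h of exposure.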
% is set by controls: 0 for no effect and ±100 for the full control effect; potency is the fitted concentration of half-maximal effect; tags give direction and shape of the fitted curve.

Compound | Potency
CCCCCCc1ccc(N)cc1 | inactive
O=C(c1ccc(F)cc1)C1CCN(CCn2c(=S)[nH]c3ccccc3c2=O)CC1 | inconclusive [falling, partial curve]
O=C(c1ccccc1)c1ccc(O)cc1O | inconclusive [falling, partial curve, poor fit]
O=C1NC2CCCCN2C12CCN(CCCN1c3ccccc3CCc3ccc(Cl)cc31)CC2 (stereo unspecified) | inconclusive [falling, partial curve, poor fit]
C[C@@H](C1=C(CCN(C)C)Cc2ccccc21)c1ccccn1 | inactive
CCc1ccc(O)c(C(C)(C)C)c1 | inconclusive [falling, partial curve, poor fit]
Cc1ccc2oc(=O)ccc2c1 | inactive
CCCCCCCCN(C)CCCCCCCC | inactive

test: qHTS RealTime-Glo MT Cell Viability Assay in HEK293 cells - 40 hour (AID 1224874); settings: RealTime-Glo luminescence; max response: stronger effect = lower value; note: nearly all actives have a fitted effect of over 50% in size
Summary of the method: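 Viable HEK293 cells reduce a cell-permeant prosubstrate; the product diffuses out and is consumed by NanoLuc in the medium to give light. Compounds went in after a 5 h incubation and plates were read over the treatment course.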

Compound | Potency | max response
OCCC(F)(F)C(F)(F)C(F)(F)C(F)(F)C(F)(F)C(F)(F)C(F)(F)C(F)(F)F | inconclusive [rising, partial curve] | –
NNc1nc(-c2ccc(N)cc2)cs1 | active: 21.9 µM | –
COc1ccc(COC=O)cc1 | inconclusive [cytotoxic, partial curve] | –
C[n+]1ccn(Cc2ccccc2)c1 | inconclusive [cytotoxic, partial curve] | –
Nc1nc(N)c2nc(CNc3ccc(C(=O)N[C@@H](CCC(=O)O)C(=O)O)cc3)cnc2n1 | inconclusive [cytotoxic, full curve, poor fit] | –
C[C@@H]1C[C@H]2[C@@H]3CCC4=CC(=O)C=C[C@]4(C)[C@@]3(F)[C@@H](O)C[C@]2(C)[C@@]1(O)C(=O)CO | inconclusive [cytotoxic, partial curve, poor fit] | –
O=C(N/N=C/c1ccccc1O)c1ccncc1 | inconclusive [cytotoxic, single point] | –
COc1ccc(-c2nc3ccc(C4=NNC(=O)CC4C)cc3[nH]2)cc1 (stereo unspecified) | active: 7.56 µM | –
CCCCCCOC(=O)c1ccccc1 | inconclusive [cytotoxic, partial curve, poor fit] | –
C/C=C(/C(=C/C)c1ccc(OC(C)=O)cc1)c1ccc(OC(C)=O)cc1 | inconclusive [cytotoxic, partial curve, poor fit] | –
CCOC(=O)/C=C(C)/C=C/C=C(C)/C=C/c1c(C)cc(OC)c(C)c1C | inconclusive [cytotoxic, partial curve, poor fit] | –
NS(=O)(=O)c1cc2c(cc1Cl)NC(C1CC3C=CC1C3)NS2(=O)=O (stereo unspecified) | – | inactive: 11.9%
O=C1CCCc2c(O)cccc21 | – | inactive: 3.41%
CC(C)CCCCCCCCCCCCCCC(=O)O | inconclusive [rising, partial curve] | –
CCCCCCCCCCCC(=O)N(CC)CC | – | inactive: -24.4%
COc1cc(CNC(=O)CCCC/C=C/C(C)C)ccc1O | active: 8.48 µM | –
O=C1OC(OC(=O)c2cccnc2Nc2cccc(C(F)(F)F)c2)c2ccccc21 (stereo unspecified) | – | inactive: -1.07%
CCN(CC)C(C)=O | – | inactive: 1.69%
CCCN[C@H]1CCc2nc(N)sc2C1 | inconclusive [cytotoxic, partial curve] | –
Nc1ccccc1Nc1ccccc1 | inconclusive [rising, partial curve] | –
COc1ccc(N=[N+]([O-])c2ccc(OC)cc2)cc1 | inconclusive [cytotoxic, partial curve, poor fit] | –
O=C1c2ccccc2Cc2ccccc21 | inconclusive [cytotoxic, full curve] | –
COC(=O)CC(=O)C(C)(C)C | inconclusive [cytotoxic, partial curve, poor fit] | –
OC[C@H]1O[C@@H](O[C@@H]2[C@@H](CO)O[C@](O)(CO)[C@H]2O)[C@H](O)[C@@H](O)[C@H]1O | – | inactive: 1.5%
CCCCCCCCCCCCCC | – | inactive: 3.06%
Nc1cccc2c(=O)[nH][nH]c(=O)c12 | inconclusive [cytotoxic, single point] | –
CNc1c2c(nn1C)CCCC2 | – | inactive: -3.57%
O=c1cccccc1O | inconclusive [cytotoxic, single point] | –
